Measurements taken from US9439918B2 (priority 2008, dated 2016).
Converted amounts (≈) assume the structure as drawn. “And” between values parts separate entries of the source, which are not always exact repeats. Equal entries are not always repeated. Where two headings read alike, the source gives them in different places. Marks after values point to notes of the source that are not given here.

Tests used:
THP-1 macrophages = experiment: Cellular accumulation, microbiological assay; format: in vitro ADME, human
S. aureus (ATCC 25923) [1] = format: cell-based
E. faecalis (ATCC 29212) = experiment: Time kill curve; format: cell-based; details: tested at 2×, 4×, 8×MIC
S. aureus (ATCC 29213) = experiment: Time kill curve; format: cell-based; details: tested at 2×, 4×, 8×MIC
S. pneumoniae (075-241B) = experiment: Time kill curve; format: cell-based; details: tested at 2×, 4×, 8×MIC
S. mitis (112-1885A) = experiment: Time kill curve; format: cell-based; details: tested at 2×, 4×, 8×MIC
[2] = test system: phagocytized S. aureus ATCC 25923; format: cell-based, Staphylococcus aureus
[3] = test system: S. epidermidis (095-2777A); experiment: Time kill curve; format: cell-based; details: tested at 2×, 4×, 8×MIC
S. aureus (ATCC 25923) [4] = format: cell-based; details: broth
S. pyogenes (088-11708A) = experiment: Time kill curve; format: cell-based; details: tested at 2×, 4×, 8×MIC
[5] = test system: Coagulase-neg. staphylococci (5); experiment: MBC/MIC ratio; details: 5 tested
S. pneumoniae (10) = experiment: MBC/MIC ratio; details: 10 tested
[6] = test system: Viridans group streptococci (5); experiment: MBC/MIC ratio; details: 5 tested
[7] = test system: β-haemolytic streptococci (5); experiment: MBC/MIC ratio; details: 5 tested
S. aureus (10) = experiment: MBC/MIC ratio; details: 10 tested
Enterococcus spp. (5) = experiment: MBC/MIC ratio; details: 5 tested
S. aureus 25923 Ery-S = format: cell-based; details: broth microdilution

SMILES: CC[C@H]1OC(=O)[C@@](C)(F)C(=O)[C@H](C)[C@@H](OC2OC(C)CC(N(C)C)C2O)[C@@](C)(OC)C[C@@H](C)C(=O)[C@H](C)[C@H]2N(CCCCn3cc(-c4cccc(N)c4)nn3)C(=O)O[C@]12C (stereo partly drawn) [CEM-101, 11-N-4-(3-aminophenyl)-[1,2,3]triazol-1-yl]-butyl-5-desosaminyl-3-oxo-2-fluoro-erythronolide A,-11,12-cyclic carbamate]
- efflux: time for release of half of the cell-associated drug (THP-1 macrophages; cells incubated with 10 mg/L for 1 h, then drug-free medium): approximately 10 min
- effect of gemfibrozil on cellular accumulation (THP-1 macrophages; gemfibrozil, MRP inhibitor): did not affect
- effect of monensin on cellular accumulation (THP-1 macrophages; monensin, proton ionophore): almost completely suppressed
- effect of acidic pH on cellular accumulation (THP-1 macrophages; pH brought from 7 to 6): reduced
- effect of verapamil on cellular accumulation (THP-1 macrophages; verapamil, Pgp inhibitor): without affecting
- accumulation level (THP-1 macrophages; within 24 h, extracellular concentration 10 mg/liter): about 375 fold
- time-kill effect on CFU (S. aureus (ATCC 25923) [1]; 0.7 mg/liter, THP-1 macrophages): significantly decrease CFU
- reduction of CFU (S. aureus (ATCC 25923) [1]; 4 mg/liter, THP-1 macrophages): approximately 1.5 log 10 CFU
- time within which the maximal decrease of CFU was obtained (S. aureus (ATCC 25923) [1]; all situations (broth and THP-1, 0.7 and 4 mg/liter)): ≤ 1 h
- Antimicrobial activity (time kill curve) (E. faecalis (ATCC 29212)): Static
- Antimicrobial activity (time kill curve) (S. aureus (ATCC 29213)): rapid bactericidal activity
- Antimicrobial activity (time kill curve) (S. pneumoniae (075-241B)): Static
- Antimicrobial activity (time kill curve) (S. mitis (112-1885A)): rapid bactericidal activity
- Emax, Δ log10 CFU at 24 h compared to the post-phagocytosis inoculum [2]: −0.86 Δ log10 CFU
- Intracellular activity (24 h), Emax [2]: −0.8 ± 0.2 Δ log cfu from time 0 h
- Intracellular activity (24 h), Static dose [2]: ~0.02 mg/L
- Intracellular activity, Static dose [2]: ~0.02 mg/L and ~0.03 mg/L
- Static dose [2]: ~0.02 mg/L
- reduction of the intracellular inoculum (Emax) [2]: ~1 log
- Antimicrobial activity (time kill curve) [3]: rapid bactericidal activity
- time-kill effect on CFU (S. aureus (ATCC 25923) [4]; 0.7 mg/liter): significantly decrease CFU
- time to achieve the antibacterial effect (S. aureus (ATCC 25923) [4]; 4 mg/liter): 1 h
- Antimicrobial activity (time kill curve) (S. pyogenes (088-11708A)): rapid bactericidal activity

SMILES: CC[C@H]1OC(=O)[C@H](C)[C@@H](O[C@H]2C[C@@](C)(OC)[C@@H](O)[C@H](C)O2)[C@H](C)[C@@H](O[C@@H]2O[C@H](C)C[C@H](N(C)C)[C@H]2O)[C@](C)(OC)C[C@@H](C)C(=O)[C@H](C)[C@@H](O)[C@]1(C)O [CLR, clarithromycin]
- No. of strains with MBC/MIC value of ≧32 [5]: 4^b
- No. of strains with MBC/MIC value of 1 (S. pneumoniae (10)): 2
- No. of strains with MBC/MIC value of 2 (S. pneumoniae (10)): 3
- No. of strains with MBC/MIC value of 4 (S. pneumoniae (10)): 1
- No. of strains with MBC/MIC value of 8 (S. pneumoniae (10)): 0
- No. of strains with MBC/MIC value of 16 (S. pneumoniae (10)): 0
- No. of strains with MBC/MIC value of ≧32 [6]: 3^b
- No. of strains with MBC/MIC value of ≧32 [7]: 2^b
- No. of strains with MBC/MIC value of 1 (S. aureus (10)): 0
- No. of strains with MBC/MIC value of 2 (S. aureus (10)): 0
- No. of strains with MBC/MIC value of 4 (S. aureus (10)): 0
- No. of strains with MBC/MIC value of 8 (S. aureus (10)): 0
- No. of strains with MBC/MIC value of 16 (S. aureus (10)): 0
- No. of strains with MBC/MIC value of ≧32 (S. aureus (10)): 6^b
- No. of strains with MBC/MIC value of 1 (Enterococcus spp. (5)): 0
- No. of strains with MBC/MIC value of 2 (Enterococcus spp. (5)): 0
- No. of strains with MBC/MIC value of 4 (Enterococcus spp. (5)): 0
- No. of strains with MBC/MIC value of 8 (Enterococcus spp. (5)): 0
- No. of strains with MBC/MIC value of 16 (Enterococcus spp. (5)): 0
- No. of strains with MBC/MIC value of ≧32 (Enterococcus spp. (5)): 2^b

SMILES: CC[C@H]1OC(=O)[C@H](C)[C@@H](OC2CC(C)(OC)C(O)C(C)O2)[C@H](C)[C@@H](OC2OC(C)CC(N(C)C)C2O)[C@@](C)(OC)C[C@@H](C)C(=O)[C@H](C)[C@H]2N(CCCCn3cc(-c4ccccn4)nn3)C(=O)O[C@]12C (stereo partly drawn) [Entry 20a]
- MIC, S. aureus 25923 Ery-S (S. aureus 25923 Ery-S): 0.25 µg/mL (≈ 0.257 µM)

SMILES: CC[C@H]1OC(=O)[C@H](C)[C@@H](OC2CC(C)(OC)C(O)C(C)O2)[C@H](C)[C@@H](OC2OC(C)CC(N(C)C)C2O)[C@@](C)(OC)C[C@@H](C)C(=O)[C@H](C)[C@H]2N(CCCCn3cc(-c4cccnc4)nn3)C(=O)O[C@]12C (stereo partly drawn) [Entry 20b]
- MIC, S. aureus 25923 Ery-S (S. aureus 25923 Ery-S): 0.25 µg/mL (≈ 0.257 µM)

SMILES: CC[C@H]1OC(=O)[C@H](C)[C@@H](OC2CC(C)(OC)C(O)C(C)O2)[C@H](C)[C@@H](OC2OC(C)CC(N(C)C)C2O)[C@@](C)(OC)C[C@@H](C)C(=O)[C@H](C)[C@H]2N(CCCCn3cc(-c4cccc(N)c4)nn3)C(=O)O[C@]12C (stereo partly drawn) [Entry 20c]
- MIC, S. aureus 25923 Ery-S (S. aureus 25923 Ery-S): 1 µg/mL (≈ 1.01 µM)

SMILES: CC[C@H]1OC(=O)[C@H](C)[C@@H](OC2CC(C)(OC)C(O)C(C)O2)[C@H](C)[C@@H](OC2OC(C)CC(N(C)C)C2O)[C@@](C)(OC)C[C@@H](C)C(=O)[C@H](C)[C@H]2N(CCCCn3cc(COc4c(Cl)cccc4Cl)nn3)C(=O)O[C@]12C (stereo partly drawn) [Entry 20d]
- MIC, S. aureus 25923 Ery-S (S. aureus 25923 Ery-S): 1 µg/mL (≈ 0.934 µM)

SMILES: CC[C@H]1OC(=O)[C@H](C)[C@@H](OC2CC(C)(OC)C(O)C(C)O2)[C@H](C)[C@@H](OC2OC(C)CC(N(C)C)C2O)[C@@](C)(OC)C[C@@H](C)C(=O)[C@H](C)[C@H]2N(CCCCn3cc(Cn4nnc5ccccc54)nn3)C(=O)O[C@]12C (stereo partly drawn) [Entry 20e]
- MIC, S. aureus 25923 Ery-S (S. aureus 25923 Ery-S): ≦0.25 μg/mL

SMILES: CC[C@H]1OC(=O)[C@H](C)C(=O)[C@H](C)[C@@H](O[C@@H]2O[C@H](C)C[C@H](N(C)C)[C@H]2O)[C@](C)(OC)C[C@@H](C)C(=O)[C@H](C)[C@H]2N(CCCCn3cnc(-c4cccnc4)c3)C(=O)O[C@]12C [TEL, telithromycin]
- No. of strains with MBC/MIC value of 1 (S. pneumoniae (10)): 2
- No. of strains with MBC/MIC value of 2 (S. pneumoniae (10)): 6^a
- No. of strains with MBC/MIC value of 4 (S. pneumoniae (10)): 0
- No. of strains with MBC/MIC value of 8 (S. pneumoniae (10)): 0
- No. of strains with MBC/MIC value of 16 (S. pneumoniae (10)): 0
- No. of strains with MBC/MIC value of ≧32 (S. pneumoniae (10)): 2
- No. of strains with MBC/MIC value of 1 (S. aureus (10)): 0
- No. of strains with MBC/MIC value of 2 (S. aureus (10)): 0
- No. of strains with MBC/MIC value of 4 (S. aureus (10)): 0
- No. of strains with MBC/MIC value of 8 (S. aureus (10)): 0
- No. of strains with MBC/MIC value of 16 (S. aureus (10)): 0
- No. of strains with MBC/MIC value of ≧32 (S. aureus (10)): 10
- No. of strains with MBC/MIC value of 1 (Enterococcus spp. (5)): 0
- No. of strains with MBC/MIC value of 2 (Enterococcus spp. (5)): 0
- No. of strains with MBC/MIC value of 4 (Enterococcus spp. (5)): 0
- No. of strains with MBC/MIC value of 8 (Enterococcus spp. (5)): 0
- No. of strains with MBC/MIC value of 16 (Enterococcus spp. (5)): 0
- No. of strains with MBC/MIC value of ≧32 (Enterococcus spp. (5)): 5
